Assay results as given in the supplement of paper PMC9151546.
Single values are uncertain, as repeats are few or missing.

Legend:
CHO-K1 [1] = experiment: micronucleus frequency (% of nucleated events); higher = more micronuclei (genotoxic)
CHO-K1 [2] = experiment: hypodiploid nuclei frequency (% of nucleated events); higher = more hypodiploid events (aneugenic)
CHO-K1 [3] = experiment: relative survival (nuclei to bead ratio vs DMSO control) (% of vehicle control); higher = more surviving cells
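Throughout, for hypodiploid nuclei frequency (% of nucleated events): hypodiploid nuclei gated on a flow cytometer with 488 nm excitation after SYTOX Green staining, cultures at 37 °C, positive controls vinblastine without S9 and cyclophosphamide with S9.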
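Throughout, for micronucleus frequency (% of nucleated events): cells lysed with nuclei stained by SYTOX Green, then micronucleus-gated events counted against nucleated events by flow cytometry with 488 nm excitation.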
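Throughout, for relative survival (nuclei to bead ratio vs DMSO control): Lysed-cell nuclei stained with SYTOX Green and counted against counting beads by flow cytometry at 488 nm excitation, with vinblastine (no S9) and cyclophosphamide (plus S9) as positive controls.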

N#Cc1c(Cl)c(Cl)c(Cl)c(C#N)c1Cl [Chlorothalonil]
Settings | hypodiploid nuclei frequency, CHO-K1 [2] [%] | micronucleus frequency, CHO-K1 [1] [%] | relative survival, CHO-K1 [3]
concentration: 0.108 (µM), S9 metabolic activation: with S9, exposure time: 3-4 hours | 0.21 | 1.39 | 90.6
concentration: 0.108 (µM), S9 metabolic activation: without S9, exposure time: 24 hours | 0.72 | 3.14 | 127
concentration: 0.135 (µM), S9 metabolic activation: with S9, exposure time: 3-4 hours | 0.16 | 1.49 | 104
concentration: 0.135 (µM), S9 metabolic activation: without S9, exposure time: 24 hours | 0.64 | 3.5 | 132
concentration: 0.169 (µM), S9 metabolic activation: with S9, exposure time: 3-4 hours | 0.33 | 1.69 | 94.6
concentration: 0.169 (µM), S9 metabolic activation: without S9, exposure time: 24 hours | 1.76 | 11.3 | 85
concentration: 0.211 (µM), S9 metabolic activation: with S9, exposure time: 3-4 hours | 0.26 | 1.37 | 88.5
concentration: 0.211 (µM), S9 metabolic activation: without S9, exposure time: 24 hours | 2 | 15.7 | 90.6
concentration: 0.264 (µM), S9 metabolic activation: with S9, exposure time: 3-4 hours | 0.19 | 1.47 | 97
concentration: 0.264 (µM), S9 metabolic activation: without S9, exposure time: 24 hours | 2.2 | 17.2 | 63.5
concentration: 0.33 (µM), S9 metabolic activation: with S9, exposure time: 3-4 hours | 0.26 | 1.63 | 91.2
concentration: 0.33 (µM), S9 metabolic activation: without S9, exposure time: 24 hours | – | – | 34.3
concentration: 0.412 (µM), S9 metabolic activation: with S9, exposure time: 3-4 hours | 0.26 | 1.38 | 106
concentration: 0.412 (µM), S9 metabolic activation: without S9, exposure time: 24 hours | – | – | 29.9
concentration: 0.515 (µM), S9 metabolic activation: with S9, exposure time: 3-4 hours | 0.26 | 1.16 | 101
concentration: 0.515 (µM), S9 metabolic activation: without S9, exposure time: 24 hours | – | – | 16.2
concentration: 0.644 (µM), S9 metabolic activation: with S9, exposure time: 3-4 hours | 0.33 | 2.75 | 76.3
concentration: 0.644 (µM), S9 metabolic activation: without S9, exposure time: 24 hours | – | – | 8.7
concentration: 0.805 (µM), S9 metabolic activation: with S9, exposure time: 3-4 hours | 0.21 | 2.19 | 99.2
concentration: 0.805 (µM), S9 metabolic activation: without S9, exposure time: 24 hours | – | – | 2.53
concentration: 1.01 (µM), S9 metabolic activation: with S9, exposure time: 3-4 hours | 0.47 | 3.01 | 83.7
concentration: 1.01 (µM), S9 metabolic activation: without S9, exposure time: 24 hours | – | – | 0.7
concentration: 1.08 (µM), S9 metabolic activation: with S9, exposure time: 3-4 hours | 0.22 | 1.24 | 83
concentration: 1.08 (µM), S9 metabolic activation: without S9, exposure time: 24 hours | 1.92 | 4.06 | 67.2
concentration: 1.26 (µM), S9 metabolic activation: with S9, exposure time: 3-4 hours | 0.65 | 3.92 | 62.8
concentration: 1.26 (µM), S9 metabolic activation: without S9, exposure time: 24 hours | – | – | 0.23
concentration: 1.35 (µM), S9 metabolic activation: with S9, exposure time: 3-4 hours | 0.26 | 1.76 | 116
concentration: 1.35 (µM), S9 metabolic activation: without S9, exposure time: 24 hours | – | – | 32.9
concentration: 1.57 (µM), S9 metabolic activation: with S9, exposure time: 3-4 hours | – | – | 57.3
concentration: 1.57 (µM), S9 metabolic activation: without S9, exposure time: 24 hours | – | – | 0.01
concentration: 1.69 (µM), S9 metabolic activation: with S9, exposure time: 3-4 hours | 0.28 | 1.76 | 99.6
concentration: 1.69 (µM), S9 metabolic activation: without S9, exposure time: 24 hours | – | – | 37.1
concentration: 1.97 (µM), S9 metabolic activation: with S9, exposure time: 3-4 hours | – | – | 33.9
concentration: 1.97 (µM), S9 metabolic activation: without S9, exposure time: 24 hours | – | – | 0.05
concentration: 2.11 (µM), S9 metabolic activation: with S9, exposure time: 3-4 hours | 0.16 | 1.64 | 96.7
concentration: 2.11 (µM), S9 metabolic activation: without S9, exposure time: 24 hours | – | – | 26.4
concentration: 2.46 (µM), S9 metabolic activation: with S9, exposure time: 3-4 hours | – | – | 16.7
concentration: 2.46 (µM), S9 metabolic activation: without S9, exposure time: 24 hours | – | – | 0.01
concentration: 2.6 (µM), S9 metabolic activation: with S9, exposure time: 3-4 hours | 0.28 | 2.34 | 112
concentration: 2.6 (µM), S9 metabolic activation: without S9, exposure time: 24 hours | – | – | 22.9
concentration: 3.07 (µM), S9 metabolic activation: with S9, exposure time: 3-4 hours | – | – | 14.1
concentration: 3.07 (µM), S9 metabolic activation: without S9, exposure time: 24 hours | – | – | 0.03
concentration: 3.3 (µM), S9 metabolic activation: with S9, exposure time: 3-4 hours | 0.24 | 1.56 | 101
concentration: 3.3 (µM), S9 metabolic activation: without S9, exposure time: 24 hours | – | – | 12.9
concentration: 3.84 (µM), S9 metabolic activation: with S9, exposure time: 3-4 hours | – | – | 8.73
concentration: 3.84 (µM), S9 metabolic activation: without S9, exposure time: 24 hours | – | – | 0.04
concentration: 4.1 (µM), S9 metabolic activation: with S9, exposure time: 3-4 hours | 0.28 | 1.78 | 145
concentration: 4.1 (µM), S9 metabolic activation: without S9, exposure time: 24 hours | – | – | 8.74
concentration: 4.8 (µM), S9 metabolic activation: with S9, exposure time: 3-4 hours | – | – | 0.11
concentration: 4.8 (µM), S9 metabolic activation: without S9, exposure time: 24 hours | – | – | 0.09
concentration: 5.2 (µM), S9 metabolic activation: with S9, exposure time: 3-4 hours | 0.12 | 0.92 | 113
concentration: 5.2 (µM), S9 metabolic activation: without S9, exposure time: 24 hours | – | – | 0.96
concentration: 6.4 (µM), S9 metabolic activation: with S9, exposure time: 3-4 hours | 0.26 | 1.48 | 141
concentration: 8.1 (µM), S9 metabolic activation: with S9, exposure time: 3-4 hours | 0.4 | 2.22 | 100
concentration: 10.1 (µM), S9 metabolic activation: with S9, exposure time: 3-4 hours | 0.28 | 1.68 | 103
concentration: 12.6 (µM), S9 metabolic activation: with S9, exposure time: 3-4 hours | 0.98 | 6.32 | 74.5
concentration: 15.7 (µM), S9 metabolic activation: with S9, exposure time: 3-4 hours | – | – | 25
concentration: 19.7 (µM), S9 metabolic activation: with S9, exposure time: 3-4 hours | – | – | 8.98
concentration: 25 (µM), S9 metabolic activation: with S9, exposure time: 3-4 hours | – | – | 3.69
concentration: 31 (µM), S9 metabolic activation: with S9, exposure time: 3-4 hours | – | – | 0.03
